Consider 83 variants from the RNAGym collection of RNA variant scans (doi:10.1073/pnas.2313332121).

Variants at the floor of the assay are shown more often than the library holds them.

B1: TPR 5TU (parent)
chain: GGAUCUUCUCGAUCUAACAAAAAAGACAAAUCUGCCACAAAGCUUGAGAGCAUCUUCGGAUGCAGAGGCGGCAGCCUUCGGUGGCGCGAUAGCGCCAACGUUCUCAACUAUGACACGCAAAACGCGUGCUCCGUUGAAUGGAGUUUAUCAUG

In the data set the parent is B1. The data set is described as follows: polymerase ribozyme fitness, log enrichment relative to wild type (log ratio); higher = more active; in vitro selection for triplet polymerase activity. In short, it runs like this:
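Each subunit of a heterodimeric triplet polymerase ribozyme was represented by a PCR-built, transcribed mutant library that underwent triplicate single-round in vitro selection with frozen incubation at −7 °C. Extended constructs were recovered by gel excision, streptavidin-bead capture and RT-PCR, and Illumina sequencing of input and output libraries kept genotypes with ≥10 input reads and ≥1 read per output. Fitness is the logarithm of genotype enrichment relative to wild-type enrichment, from inverse-variance-weighted replicate averages, with a logarithm base of 2.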
As to U45G A52U, the “polymerase ribozyme fitness (log ratio)” value was -3.15.
For A47C U53G G83A A106U C132A, the “polymerase ribozyme fitness (log ratio)” value is at most -4.2.
In the case of G46A U55A G58A C72U U145G, the “polymerase ribozyme fitness (log ratio)” value was at most -4.2.
The figure for G46C G92C A142U is at most -4.2.
The figure for G46C A73C C93G A107U A110U G140A is at most -4.2; for U45G G67A U78C G86C G94A U135A it is at most -4.2.
The figure for A47C A49G U78A A98U A120U C131G U144G is at most -4.2; for A47C G58A G67U A89G G92U A97U G124U U130A G143A it is at most -4.2; for G46A U56A U82C C93A A107G C125U G136U it is at most -4.2.
With U45G U56A G58U A60G A91U C105U A142C, the “polymerase ribozyme fitness (log ratio)” value is at most -4.2.
The figure for A47C G50C G88A C96G G136U A138C is at most -4.2; for G46A G81A C85G C93U A106G U148C it is at most -4.2; for G46C C54A U61A C63U G70A G84A C93U G100A C116G it is at most -4.2.
On to A47G A52G G58A A60G G62C U78G G88C, for which the “polymerase ribozyme fitness (log ratio)” value is at most -4.2.
As to A47C G59A, the “polymerase ribozyme fitness (log ratio)” value was found to be 0.309.
Regarding G46U C72U C85U U90G C93U A115G A121G, the “polymerase ribozyme fitness (log ratio)” value is at most -4.2.
The figure for A47C U61C A66G G83C G86U C132G G143C is at most -4.2; for A47C C51U C54U C72U G84U it is -3.18.
The figure for A47C G48A A52C C54U C85U G92C A98C C103G G126U is at most -4.2; for A47C C63A A107G C114A A137U it is at most -4.2; for G46C A52G G92A C114A A142U it is at most -4.2.
The figure for A47G A52C C54A G92C A97U C125U C149A is at most -4.2; for G46C G50C U56A C57A G86A A98U U139G G141A it is at most -4.2; for G46A A91G G136U it is at most -4.2.
As for G46A C87A A97U U139G A142G, the “polymerase ribozyme fitness (log ratio)” value is at most -4.2.
Take U45C G86A U109G U134G: the “polymerase ribozyme fitness (log ratio)” value is at most -4.2.
The figure for G46C A52G A137G is -2.44; for G46C C87A C125U G140U it is at most -4.2; for A47C C76A C99U U127G U135G it is at most -4.2.
As to U45G C57U G70C C76A A91G C93A, the “polymerase ribozyme fitness (log ratio)” value was at most -4.2.
The figure for G46C U101C U102A G128A C149U is at most -4.2.
Consider U45C G62C C87G U145C, for which the “polymerase ribozyme fitness (log ratio)” value was at most -4.2.
As to G46A A64U C79U C131U, the “polymerase ribozyme fitness (log ratio)” value is at most -4.2.
The figure for A47C U53C C57A C72G A73C U78C C79U C96G C129A A150G is at most -4.2; for A47C C69U G80C it is at most -4.2.
As to G46C G48A C95U C114G, the “polymerase ribozyme fitness (log ratio)” value was at most -4.2.
Consider G46A C54A C76U G143A, for which the “polymerase ribozyme fitness (log ratio)” value was at most -4.2.
Take U45C U53G G88C A106U C108U: the “polymerase ribozyme fitness (log ratio)” value was at most -4.2.
On to G46U G68C G94C, for which the “polymerase ribozyme fitness (log ratio)” value is at most -4.2.
In the case of G46A A47G C69U C85G C93A C108G C118U A120U G143A, the “polymerase ribozyme fitness (log ratio)” value was at most -4.2.
Consider G46C A64G A91C, for which the “polymerase ribozyme fitness (log ratio)” value is at most -4.2.
Regarding G46A G58A G83C, the “polymerase ribozyme fitness (log ratio)” value is -1.17.
On to G46A C54U G58A A73U C85U A138G, for which the “polymerase ribozyme fitness (log ratio)” value was at most -4.2.
The figure for G46C C54A A91G is at most -4.2; for U45A G67A C79A A91U A121G it is at most -4.2.
The figure for G46A G80A A89G is at most -4.2; for A47C U61G G68A G94C C99G A122C it is at most -4.2.
The figure for G46A C79U C93U C108U A121G C149U is at most -4.2; for A47G A49C U77C it is at most -4.2; for U45G C51U C96G A107C A113G G126C it is at most -4.2.
Consider G46A G59C G70U U78G G84C G140A, for which the “polymerase ribozyme fitness (log ratio)” value was at most -4.2.
For U45A U56A U104C C116U, the “polymerase ribozyme fitness (log ratio)” value is at most -4.2.
The figure for A47C C87U C105A A119C is -1.51; for G46A U56A G58A G70U U77G C96U A107U C125U it is at most -4.2; for A47C G133U C149A it is at most -4.2.
The figure for U45G U78C G83U C108G C129U G133U A147U is at most -4.2.
The figure for G46C G68U G80C C87A U104G A113U C118A is at most -4.2.
U45G C87U U111G A147C: the “polymerase ribozyme fitness (log ratio)” value was at most -4.2.
Take U45G G84U A113U: the “polymerase ribozyme fitness (log ratio)” value is -4.1.
The figure for A47C C69G G83A A120C U148A is at most -4.2; for G46A C103G it is at most -4.2.
With U45G C85U, the “polymerase ribozyme fitness (log ratio)” value was -0.0479.
The figure for A47C G59C C93G is at most -4.2; for U45G G50C G62U C76A C93A A121U G126A it is at most -4.2.
The figure for A47C U77G U130G is at most -4.2; for G46C A91G C114U C131U A137G C149A it is at most -4.2; for G46C G88U A107G U139A it is at most -4.2.
For the variant A47C A122U, the “polymerase ribozyme fitness (log ratio)” value is -1.45.
On to G46C G50A U55A C87A C105G U139G A147U, for which the “polymerase ribozyme fitness (log ratio)” value was at most -4.2.
The figure for U45G A47C A73U G92A C149G is at most -4.2; for A47C C51U C54U A73C A122U it is at most -4.2; for A47C G83A C99U A120U it is -3.03.
Regarding A47C C51U G58C G70A C96U A106U U151C, the “polymerase ribozyme fitness (log ratio)” value is at most -4.2.
In the case of U45A G140U, the “polymerase ribozyme fitness (log ratio)” value was -4.19.
The figure for U45A G126A is -2.15; for G46C A52C C87G C99G it is at most -4.2; for G46C G86A U109A it is at most -4.2.
The figure for U45A U56A G80C U102G A119U is at most -4.2; for G46A G67A A91G C95A U102C it is at most -4.2.
For U45A G86U G88U C99G G117U, the “polymerase ribozyme fitness (log ratio)” value was at most -4.2.
The figure for G46C G86A G94A C105U is at most -4.2; for A47C U82G A142C it is -2.54.
G46C C87G G140C: the “polymerase ribozyme fitness (log ratio)” value was at most -4.2.
